# PubChem BioAssay (NCATS)
# Where “and” joins values, the source holds several entries; their conditions need not be identical. Equal values may be shown once. The inconclusive results got no clear call from the source; some entries with a clear call stand among them for comparison. Where the call is inconclusive, the potency comes from a doubtful curve fit. Some compounds were tested as several samples or in several runs, with calls that do not always agree. Calls of active or inactive are those of the source. The call rests on the fitted dose curve; in most records, active means well fitted cell-killing curve with a large enough effect; inconclusive means small, poorly fitted or top-dose-only effect, or effect the other way; inactive means flat fitted curve, though single readings scatter.
# System: CAOV3
# Assay: Primary qHTS to identify gynecologic anti-cancer compounds using libraries of approved drugs and bioactive compounds (AID 1345084); further: nearly all actives have a fitted effect of over 55% in size
# Details: Gynecologic cancer cell panel viability, ATPlite luminescence, 48 h; series mostly up to 57.5 µM; activity change, negative = cytotoxicity: at the top concentration
# How it was run: (§1)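 In this quantitative HTS, cell killing is estimated from loss of ATP-dependent luciferase light. Cells see five compound concentrations over a 48 h exposure.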
# On the % scale 0 is the no-effect control and ±100 the full control effect; potency means the concentration at half of the fitted maximal effect; tags describe the fitted curve by direction and shape.
SMILES,Potency,"activity change, negative = cytotoxicity"
C[C@@H]1CCO[C@H]2Cn3cc(C(=O)NCc4ccc(F)cc4F)c(=O)c(O)c3C(=O)N12,"inconclusive: 22.4 µM [cytotoxic, partial curve, poor fit]",
CN(C)C1CCN(C(=O)c2ccc(NC(=O)Nc3nc(N4CCOCC4)nc(N4CCOCC4)n3)cc2)CC1,"inconclusive: 0.355 µM [cytotoxic, full curve, poor fit]",
COc1ccc(-c2nc3ccc(C4=NNC(=O)CC4C)cc3[nH]2)cc1 (stereo unspecified),active: 17.8 µM,
C[C@@]1(C(=O)Nc2ccc(F)nc2)CCCN1c1nc(Nc2cc(C3CC3)[nH]n2)c2cccn2n1,"inconclusive: 8.91 µM [cytotoxic, partial curve]",
Cn1cnc2c1c(=O)[nH]c(=O)n2C,,inactive: 0.313%

# System: CASKI
# Assay: as above
# Details: Gynecologic cancer cell panel viability, ATPlite luminescence, 48 h; series mostly up to 57.5 µM; activity change, negative = cytotoxicity: at the top concentration
# How it was run: as §1
SMILES,Potency,"activity change, negative = cytotoxicity"
C[C@@H]1CCO[C@H]2Cn3cc(C(=O)NCc4ccc(F)cc4F)c(=O)c(O)c3C(=O)N12,"inconclusive: 20 µM [cytotoxic, partial curve, poor fit]",
CN(C)C1CCN(C(=O)c2ccc(NC(=O)Nc3nc(N4CCOCC4)nc(N4CCOCC4)n3)cc2)CC1,active: 0.141 µM,
COc1ccc(-c2nc3ccc(C4=NNC(=O)CC4C)cc3[nH]2)cc1 (stereo unspecified),"inconclusive: 35.5 µM [cytotoxic, partial curve, poor fit] and inconclusive: 25.1 µM [cytotoxic, partial curve, poor fit]",
COc1ccc2cc(-c3nc(-c4ccc(S(C)=O)cc4)[nH]c3-c3ccncc3)ccc2c1 (stereo unspecified),,inactive: 1.37%
COc1ccccc1OCCNCC(O)COc1cccc2[nH]c3ccccc3c12 (stereo unspecified),"inconclusive: 39.8 µM [cytotoxic, single point]",
C[C@@]1(C(=O)Nc2ccc(F)nc2)CCCN1c1nc(Nc2cc(C3CC3)[nH]n2)c2cccn2n1,active: 14.1 µM,

# System: Es-2
# Assay: as above
# Details: Gynecologic cancer cell panel viability, ATPlite luminescence, 48 h; series mostly up to 57.5 µM; activity change, negative = cytotoxicity: at the top concentration
# How it was run: as §1
row,SMILES,Potency
1,C[C@@H]1CCO[C@H]2Cn3cc(C(=O)NCc4ccc(F)cc4F)c(=O)c(O)c3C(=O)N12,"inconclusive: 31.6 µM [cytotoxic, single point]"
2,COc1ccc(-c2nc3ccc(C4=NNC(=O)CC4C)cc3[nH]2)cc1 (stereo unspecified),"inconclusive: 7.08 µM [cytotoxic, single point]"
3,COC1=C(OC)C(=O)C(CCCCCCCCCCO)=C(C)C1=O,"inconclusive: 28.2 µM [cytotoxic, single point]"
4,Clc1ccc(C(Cn2ccnc2)OCc2c(Cl)cccc2Cl)c(Cl)c1 (stereo unspecified),"inconclusive: 0.708 µM [cytotoxic, partial curve, poor fit]"
5,Cc1ccc(-n2[nH]c(C)c(N=Nc3cccc(-c4cccc(C(=O)O)c4)c3O)c2=O)cc1C,"inconclusive: 28.2 µM [cytotoxic, partial curve]"
